According to the supplement of paper PMC9151546:
Most values come without repeats; read them as rough.

What was measured:
[1] = tested on: CHO-K1; test: micronucleus frequency (% of nucleated events); higher = more micronuclei (genotoxic)
[2] = tested on: CHO-K1; test: relative survival (nuclei to bead ratio vs DMSO control) (% of vehicle control); higher = more surviving cells
Description: (§1)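 Flow-cytometric in vitro micronucleus assay (Litron MicroFlow) in CHO-K1 cells in 96-well plates, 19 concentrations (4.5-200 µM, n=1 per concentration). Without S9, cells were exposed for 24 h and sampled at 48 h. With Aroclor 1254-induced rat liver S9, cells were exposed for 3-4 h and sampled at 27-28 h. Read-outs are %MN and %hypodiploid nuclei relative to nucleated events, and relative survival as the nuclei-to-bead ratio versus the 1% DMSO vehicle control (x100).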

[3] = tested on: CHO-K1; test: hypodiploid nuclei frequency (% of nucleated events); higher = more hypodiploid events (aneugenic)
Description: as §1
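For hypodiploid nuclei frequency (% of nucleated events) in this document: hypodiploid nuclei gated on a flow cytometer with 488 nm excitation after SYTOX Green staining, cultures at 37 °C, positive controls vinblastine without S9 and cyclophosphamide with S9.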
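For micronucleus frequency (% of nucleated events) in this document: cells lysed with nuclei stained by SYTOX Green, then micronucleus-gated events counted against nucleated events by flow cytometry with 488 nm excitation.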
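For relative survival (nuclei to bead ratio vs DMSO control) in this document: Lysed-cell nuclei stained with SYTOX Green and counted against counting beads by flow cytometry at 488 nm excitation, with vinblastine (no S9) and cyclophosphamide (plus S9) as positive controls.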

OCCC(F)(F)C(F)(F)C(F)(F)C(F)(F)C(F)(F)C(F)(F)C(F)(F)C(F)(F)F [1,1,2,2-Tetrahydroperfluoro-1-decanol]
Settings | hypodiploid nuclei frequency, [3] [%] | micronucleus frequency, [1] [%] | relative survival, [2]
concentration: 4.5 (µM), S9 metabolic activation: with S9, exposure time: 3-4 hours | 0.38 | 1.44 | 120
concentration: 4.5 (µM), S9 metabolic activation: without S9, exposure time: 24 hours | 0.26 | 1.76 | 148
concentration: 5.63 (µM), S9 metabolic activation: with S9, exposure time: 3-4 hours | 0.2 | 1.7 | 113
concentration: 5.63 (µM), S9 metabolic activation: without S9, exposure time: 24 hours | 0.44 | 1.36 | 125
concentration: 7.04 (µM), S9 metabolic activation: with S9, exposure time: 3-4 hours | 0.3 | 1.76 | 98.2
concentration: 7.04 (µM), S9 metabolic activation: without S9, exposure time: 24 hours | 0.56 | 1.24 | 118
concentration: 8.8 (µM), S9 metabolic activation: with S9, exposure time: 3-4 hours | 0.14 | 1.52 | 105
concentration: 8.8 (µM), S9 metabolic activation: without S9, exposure time: 24 hours | 0.46 | 1.16 | 83.7
concentration: 11 (µM), S9 metabolic activation: with S9, exposure time: 3-4 hours | 0.32 | 2.28 | 103
concentration: 11 (µM), S9 metabolic activation: without S9, exposure time: 24 hours | 0.52 | 1.48 | 111
concentration: 13.7 (µM), S9 metabolic activation: with S9, exposure time: 3-4 hours | 0.22 | 2.06 | 133
concentration: 13.7 (µM), S9 metabolic activation: without S9, exposure time: 24 hours | 0.52 | 1.32 | 116
concentration: 17.2 (µM), S9 metabolic activation: with S9, exposure time: 3-4 hours | 0.34 | 2.06 | 109
concentration: 17.2 (µM), S9 metabolic activation: without S9, exposure time: 24 hours | 0.4 | 1.06 | 113
concentration: 21.5 (µM), S9 metabolic activation: with S9, exposure time: 3-4 hours | 0.14 | 1.48 | 112
concentration: 21.5 (µM), S9 metabolic activation: without S9, exposure time: 24 hours | 0.44 | 1.22 | 112
concentration: 26.8 (µM), S9 metabolic activation: with S9, exposure time: 3-4 hours | 0.18 | 1.18 | 88.5
concentration: 26.8 (µM), S9 metabolic activation: without S9, exposure time: 24 hours | 0.56 | 1.08 | 110
concentration: 33.6 (µM), S9 metabolic activation: with S9, exposure time: 3-4 hours | 0.28 | 2.06 | 90.2
concentration: 33.6 (µM), S9 metabolic activation: without S9, exposure time: 24 hours | 0.54 | 0.98 | 148
concentration: 41.9 (µM), S9 metabolic activation: with S9, exposure time: 3-4 hours | 0.24 | 1.66 | 86
concentration: 41.9 (µM), S9 metabolic activation: without S9, exposure time: 24 hours | 0.46 | 2.08 | 138
concentration: 52.4 (µM), S9 metabolic activation: with S9, exposure time: 3-4 hours | 0.34 | 0.96 | 80.5
concentration: 52.4 (µM), S9 metabolic activation: without S9, exposure time: 24 hours | 0.52 | 1.12 | 98.7
concentration: 65.5 (µM), S9 metabolic activation: with S9, exposure time: 3-4 hours | 0.16 | 1.2 | 95.9
concentration: 65.5 (µM), S9 metabolic activation: without S9, exposure time: 24 hours | 0.7 | 1.54 | 112
concentration: 81.9 (µM), S9 metabolic activation: with S9, exposure time: 3-4 hours | 0.16 | 1.76 | 90
concentration: 81.9 (µM), S9 metabolic activation: without S9, exposure time: 24 hours | 1 | 1.52 | 112
concentration: 102 (µM), S9 metabolic activation: with S9, exposure time: 3-4 hours | 0.38 | 3.3 | 73.2
concentration: 102 (µM), S9 metabolic activation: without S9, exposure time: 24 hours | 0.74 | 1.56 | 87.3
concentration: 128 (µM), S9 metabolic activation: with S9, exposure time: 3-4 hours | 0.12 | 1.8 | 102
concentration: 128 (µM), S9 metabolic activation: without S9, exposure time: 24 hours | 0.52 | 2.26 | 67
concentration: 160 (µM), S9 metabolic activation: with S9, exposure time: 3-4 hours | 0.28 | 2.12 | 92
concentration: 160 (µM), S9 metabolic activation: without S9, exposure time: 24 hours | – | – | 38.2
concentration: 200 (µM), S9 metabolic activation: with S9, exposure time: 3-4 hours | 0.24 | 3.96 | 87.6
concentration: 200 (µM), S9 metabolic activation: without S9, exposure time: 24 hours | – | – | 7.09
